# According to the supplement of paper PMC4466236:
# Over roughly 33,000 sequences, “E-score (dimensionless, -0.5 to 0.5)” has its median near -0.058; the highest 2% begin near 0.35. This is one part of the list.
# System: MvaT
# Assay: PBM 8-mer E-score (mean of HK and ME arrays) (E-score (dimensionless, -0.5 to 0.5)); higher = stronger relative binding preference; most listed sequences are background and not binding sites
# Outline: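 Reported values are rank-based E-scores, taken as the mean of two universal arrays and parsed with a custom script. Each 8-mer score falls between -0.5 and 0.5. The arrays, ME and HK, were double-stranded 60-mers with a constant 25-mer primer region and a variable 35-mer region covering all 8-mers. They were probed, by an earlier protocol, with full-length P. aeruginosa MvaT carrying an N-terminal glutathione S-transferase fusion.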
row,Sequence,PBM 8-mer E-score
1,GATCCTGC,-0.176
2,ACCAGAGT,-0.0489
3,ATTAAAAC,0.301
4,GCGCCAAC,-0.00491
5,CGCGGGAG,-0.3
6,TCTTCTCA,-0.105
7,AACAGACA,0.209
8,AGATGCAA,-0.0752
9,AACAGCAG,-0.0475
10,GACAGACC,-0.131
11,CAATTCCG,0.0156
12,ATCACGAC,0.0339
13,CTGATCAG,-0.128
14,AACAATAG,0.294
15,GCACTTGA,-0.141
16,CGTATCAA,0.0468
17,AGATTCTC,-0.114
18,ACATAAGA,0.191
19,ATTGTCGA,0.157
20,AATGCAGG,0.0774
21,CACATGTC,-0.051
22,ATGCGCTC,-0.152
23,ACACCTTA,-0.00487
24,TGATTCCA,0.0813
25,CGCTAGAA,0.0253

row,Sequence,PBM 8-mer E-score
1,ATGGCGGG,-0.161
2,GCGTCTAA,-0.00904
3,AAATACTC,0.207
4,AGGTCGCG,-0.202
5,CGAGAGGC,-0.296
6,ACCTACCA,-0.0837
7,TCGTGGCA,-0.161
8,GCGCTTAA,0.147
9,CGACTTCC,-0.0647
10,CGGCAGCA,-0.175
11,AGACAAGG,-0.157
12,GTCCGCAA,0.0459
13,ATGGCAGG,-0.195
14,GGAGTCAC,-0.129
15,GCCTTTCA,-0.0671
16,CGCAGCTC,-0.287
17,ATGGGCGA,-0.148
18,ACTATGAA,0.119
19,ATTTCACG,0.0183
20,AGACTAAG,0.111
21,ATTGAATC,0.122
22,AGAGAAGG,-0.122
23,CGGAACCC,-0.197
24,GAGCTTGA,-0.201
25,ACCTGCTA,-0.142

row,Sequence,PBM 8-mer E-score
1,GCCTGGAC,-0.223
2,AAGGTTTC,-0.149
3,ACTTATCC,0.181
4,AGTTGAGG,-0.0417
5,ACTAACTG,0.191
6,GACATACA,0.0197
7,ACCCTCGG,-0.132
8,CATACTGA,0.0023
9,CATTTGTC,0.0407
10,GTAGAGGA,-0.107
11,GCCAGAGA,-0.135
12,CATGAGGG,-0.214
13,AAGGAGGA,-0.135
14,GAAGGTTA,-0.0694
15,GCCACTGA,-0.0453
16,CCCTTGAG,-0.115
17,ATAACTTC,0.351
18,AACGTCTA,-0.174
19,CCATAACG,0.0305
20,GGAAAATA,0.192
21,GAGCCTGA,-0.248
22,AAATACCT,0.193
23,CCTATTGC,-0.203
24,CGACCTGA,-0.231
25,GATCCCAA,-0.0954

row,Sequence,PBM 8-mer E-score
1,AAATTCTC,0.0718
2,GCATGGGA,-0.0461
3,ACACTGGA,-0.128
4,GCTGTATA,0.2
5,AATCAGCG,-0.0637
6,AACGCCGT,-0.147
7,CTTGGTGC,-0.111
8,CCTGCACA,-0.0695
9,ATGCATAA,0.296
10,CCCGGTAC,-0.251
11,ATGCATCC,-0.085
12,GAATCCTA,-0.0917
13,AACGGCAA,0.144
14,GCGACCAA,-0.0335
15,CGCGTAAA,0.213
16,TCTCTTCA,-0.0241
17,AAAGCCTA,0.125
18,CTCCCCAG,-0.206
19,ATGTGTTA,0.258
20,TAGGTGAA,0.0588
21,CTAGGGCA,-0.187
22,AGTCTCGC,-0.0341
23,ACCCTAAG,-0.139
24,CATTCATA,0.173
25,CTCAGGGC,-0.28

row,Sequence,PBM 8-mer E-score
1,CTGCCTCC,-0.303
2,TTAACCAA,0.236
3,GAAACGCA,-0.105
4,CCTCTCAC,-0.201
5,CACAGAAA,-0.0504
6,CCCAAGTC,-0.149
7,GACTATGA,-0.0673
8,CGGCATAA,0.202
9,CGTTGTGA,-0.0557
10,GTAGGAAC,-0.0612
11,GAATACCA,0.00319
12,AAAGGGGC,-0.289
13,AAGCCGGG,-0.164
14,TCCCTACA,-0.156
15,ACATATCA,0.213
16,CTGGAAAG,-0.0706
17,CGAGTGGC,-0.232
18,CTATGGAA,0.0218
19,CTTCCGCA,-0.136
20,CTTGGTTC,-0.134
21,ACGTCGTC,-0.137
22,CACAATAC,0.052
23,AGCCAAAA,-0.0832
24,AGTTCGTA,0.179
25,TGCGTCCA,-0.219

row,Sequence,PBM 8-mer E-score
1,ACCTTGGC,-0.222
2,CAAACATG,0.196
3,CCTCGGAA,-0.0536
4,CAAGCGAC,-0.157
5,ACTCATAG,-0.135
6,GCTTAGCA,-0.165
7,CCTCGTGC,-0.29
8,AACGATAG,-0.0547
9,ATACGTTA,0.296
10,CTAGCCCC,-0.21
11,ATCAGAGC,-0.171
12,GCACTAGA,-0.138
13,ACATGGAT,0.102
14,AACTGCGT,-0.0481
15,CATCTTTA,0.24
16,AAAATTAT,0.355
17,ATAGTCCC,-0.0824
18,ATCCGGAA,-0.0227
19,AACGACAC,0.0139
20,ACCCTCTA,-0.242
21,GATGAACA,0.00916
22,CTTGTTTC,0.0315
23,ATCTTCAT,0.123
24,GTAGTCCA,-0.0481
25,CTCCTCAC,-0.208

row,Sequence,PBM 8-mer E-score
1,GCTATCGA,-0.0886
2,AAAGGGTC,-0.125
3,AGGGCACG,-0.282
4,GCGCGGCA,-0.219
5,TACCGTAA,0.16
6,AGTCCAAT,0.0865
7,TCAACACA,0.011
8,CTCAATAA,0.307
9,CATAGATG,0.0192
10,GGAGAGCA,-0.258
11,GAGGGCGC,-0.389
12,GAGTTAAA,0.25
13,GGAAGGAC,-0.12
14,GACGCAGA,-0.227
15,AAATTGCT,0.214
16,CGCAGCAA,-0.156
17,CCTGGGTC,-0.264
18,AGTTGATG,-0.0188
19,AAGTACAG,0.141
20,ATCTGAAG,0.00835
21,AATCGTTC,-0.119
22,CGTCCAAG,-0.161
23,ATCTTATC,0.114
24,TGTCTAAA,0.137
25,ACCCACAC,0.187

row,Sequence,PBM 8-mer E-score
1,GGGCGCTA,-0.265
2,ATCCCAAG,-0.0779
3,ATTTGTTA,0.325
4,GAGATTAA,0.232
5,ACGGGCAG,-0.123
6,CCACAGTA,-0.0252
7,CATTAATG,0.34
8,AGAGGCTC,-0.288
9,AATATGCC,0.17
10,CTTGGTAC,-0.225
11,CTTTTCAC,-0.00227
12,CTGATTAA,0.278
13,GGGACTAC,-0.0607
14,CAATGCAC,-0.00507
15,CGAGCGGA,-0.227
16,CAGTAATA,0.273
17,TGGTAACA,-0.0359
18,GAAAACGA,-0.0123
19,CTCAGAGC,-0.118
20,AAAAAAAT,0.227
21,GAGAAAAC,0.00227
22,AAATTACC,0.212
23,AGAGTAGC,-0.15
24,TATCAGAA,0.146
25,TCCGACCA,-0.131

row,Sequence,PBM 8-mer E-score
1,CTGCAGTC,-0.0989
2,AATATAGT,0.398
3,ATATGAAA,0.279
4,ATAATTGG,0.308
5,GTATTATA,0.437
6,ATAACCGG,0.0956
7,AGACTATG,0.0431
8,ATGAGTTC,-0.0864
9,CATGGTCG,-0.206
10,GGCAACCC,-0.163
11,AGGCGGCA,-0.158
12,CCTAAGAC,-0.227
13,AACTCGGG,0.0231
14,AGATGTCG,-0.195
15,ACCCGCGA,-0.277
16,AGTTGTCG,0.125
17,GAAATGGA,-0.0483
18,ACTATGCT,0.0329
19,CAACACTA,0.11
20,AACACATT,0.225
21,CGTGGAGC,-0.123
22,CAGGAATG,-0.102
23,ATCCGTAA,-0.054
24,ACAAGGCG,-0.173
25,TCGCGCAA,0.025

row,Sequence,PBM 8-mer E-score
1,TTAAATAA,0.445
2,TGAGTAAA,0.107
3,GGATAGGA,0.0316
4,ACTTGGAT,0.048
5,GAGCAGAA,-0.135
6,CGCGCCTA,-0.103
7,ATCTTGGG,-0.157
8,AACCTGGC,-0.0498
9,CGAGATGA,-0.215
10,CCCCTGGC,-0.322
11,CAGTGAAG,-0.205
12,ACTAATTC,0.227
13,CAAGGTGC,-0.281
14,GTAGAGTA,0.0731
15,GGTCACAA,-0.0731
16,GACTAATC,-0.0756
17,GTCCCAAC,0.0304
18,ATCCATAA,0.159
19,AAAGGCCC,-0.253
20,AGCATTCA,0.0958
21,GATGCATC,0.0123
22,ACATCAGA,0.00656
23,AGTGATTC,0.0437
24,ACGGTAAT,0.18
25,AACAATAA,0.422

row,Sequence,PBM 8-mer E-score
1,ATCACCAT,-0.0433
2,CAACGGGG,-0.0186
3,CCGTCAAG,-0.147
4,GTATCGAC,-0.0329
5,ATTCACCG,0.0854
6,CATTTAAC,0.298
7,CTCGCCAC,-0.144
8,CCCAAGGA,-0.238
9,GCAACACA,-0.0406
10,AACCATGT,0.0619
11,ACCGAATG,-0.0603
12,ACCTCTGA,-0.23
13,GAGAGGGC,-0.304
14,AAACGCCG,-0.198
15,AGTCTAAC,0.049
16,GTTGGTCA,0.0411
17,AACTAGCA,0.13
18,ACATCCTG,-0.12
19,AGTAATCG,-0.0403
20,AAACATCT,0.177
21,GGTATCCA,-0.0532
22,GCGTTCCC,-0.186
23,AGACTGCT,-0.108
24,AGATCTGC,-0.0672
25,ACTTGATC,0.0758

row,Sequence,PBM 8-mer E-score
1,GGACGTTA,-0.103
2,AGCATAAG,-0.186
3,GTCCTACA,-0.0701
4,AATCTGTA,0.109
5,ATCACATC,-0.0184
6,AACGGAGG,-0.22
7,AGACGTGC,-0.122
8,GCGTAAGA,-0.112
9,AGCCTGTA,-0.00993
10,AACTCTGT,0.139
11,CGCCTACC,-0.181
12,AAAATCCA,-0.00292
13,GACTACCC,-0.189
14,AATAGGCG,-0.082
15,GCGAACTA,0.152
16,ACCATCAC,-0.0655
17,GGGTACAA,-0.0488
18,CGGCAAAG,-0.141
19,ACGTTTCA,-0.00943
20,CGACCGGC,-0.255
21,AGCATTGC,-0.0493
22,GAACCCTC,-0.275
23,GGTTCCGA,-0.282
24,CATAGTAC,0.0474
25,GTACCCAC,-0.27

row,Sequence,PBM 8-mer E-score
1,CTTGTAGA,-0.0623
2,CGAACTAG,0.0339
3,CAGTTTCA,0.0616
4,CGTCTATC,-0.0975
5,GTTTGCTA,0.1
6,CCACTATC,0.0825
7,GTAACATA,0.329
8,CTTCCGCC,-0.27
9,ATCATTGA,0.12
10,ATGAGAGC,-0.239
11,GTATGACA,0.0692
12,GAACTTAA,0.263
13,AGGCACGC,-0.347
14,TTAACGAA,0.174
15,AGAACGTG,0.000115
16,AATAACAT,0.32
17,CTTATTGC,0.178
18,AAGTATGT,0.31
19,CAGGCGCA,-0.293
20,AACTTCGA,0.203
21,CTCAGATA,-0.0102
22,AATTTACT,0.226
23,TAGGGTCA,-0.0417
24,ACATCGAC,-0.138
25,AGCAGTGC,-0.302

row,Sequence,PBM 8-mer E-score
1,TTGCGCAA,0.248
2,TAGGCGGA,-0.189
3,CGGTGGGC,-0.161
4,CAACCTTG,-0.16
5,CGCATTTA,0.156
6,CCCAGAGG,-0.294
7,ATCCCACC,0.0538
8,CCCGGACG,-0.23
9,ATCACCAA,-0.0296
10,AGACCGCC,-0.212
11,ATATCCCG,0.0682
12,AGGCGCAA,-0.173
13,TTCCGCAA,0.134
14,ATCCGAAG,-0.135
15,CCACCGTA,-0.13
16,GAAGGCTC,-0.353
17,CTGACGCA,-0.123
18,AGGCTCTC,-0.227
19,CCCTAGTC,-0.182
